Molecular target: CXC chemokine receptor 4 (CXCR4), human (human, UniProt P61073 1-352)
Experiment: cell-based or functional assay

UniProt P61073, sequence (P61073 whole entry): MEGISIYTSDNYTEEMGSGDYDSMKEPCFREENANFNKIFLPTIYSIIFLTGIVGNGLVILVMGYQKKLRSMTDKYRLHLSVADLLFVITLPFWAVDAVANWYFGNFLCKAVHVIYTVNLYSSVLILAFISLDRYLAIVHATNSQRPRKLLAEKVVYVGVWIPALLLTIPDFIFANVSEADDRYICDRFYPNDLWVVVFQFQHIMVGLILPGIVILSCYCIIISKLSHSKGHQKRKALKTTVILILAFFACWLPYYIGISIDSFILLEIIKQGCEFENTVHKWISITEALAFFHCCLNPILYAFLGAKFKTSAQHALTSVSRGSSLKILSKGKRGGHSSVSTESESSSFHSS

B1: D-1K21 scFv (scFv)
scFv: [about 100 residues left out]RNLIAARPRNRGRDAFDIWGQGTMVTVSSKLSGSASAPKLEEGEFSEARVDIQMTQSPSTLSASVGDRVTITCRASQSIGGSLAWYQQKPGKGPNLLIYAASTLQSGVPSRFSGSGSGTEFTLTISSLQPEDSATYYCQHYESYPLSFGGGTKLEIKAAAGSEQKLISEEDLNSHHHHHH
ADCC, EC50 (ng/mL), scFv cross-linked with chimeric anti-cMyc IgG1: 18.8 ng/mL | ADCC, EC50, scFv, molar: 0.7 nM

— patent US20160244527A1 (AFFITECH RESEARCH, published 2016)
